Assay results taken from patent US20260176310A1 (NAVIGO PROTEINS, published 2026).

Assays:
[1] = target: T1, mCD26 expressed on HEK293-mCD26 cells (mouse, UniProt P28843 1-760); assay: flow cytometry on HEK293-mCD26 cells
T1 construct: whole, on cells
Description: (§1) Flow cytometry was used to analyze the interaction of FAP binding proteins with cell surface-exposed hFAP and mFAP. FAP overexpressing human embryonic kidney cell line HEK293, CD26-overexpressing HEK293-cells, native FAP expressing cell line Wi38 and empty vector control HEK293-pEntry cells were used. The anti-hFAP antibody (R&D Systems, MAB3715-100) with a concentration of 1 μg/ml in combination with anti-mouse-IgG-Alexa488 (Invitrogen, A10680) with a 1:1000 dilution was used as positive control for hFAP-expressing cells. Anti-mFAP antibody (R&D Systems, MAB9727) with a concentration of 1 μg/ml in combination with anti-rat-IgG-Alexa488 (Invitrogen, A11006) with a dilution of 1:1000 was used as positive control for mFAP-expressing cells.
(§2) Cells were trypsinized and resupended in medium containing FCS, washed and stained in pre-cooled FACS blocking buffer (3% FCS/PBS). A suspension with a cell concentration of 1×10⁶ cells/ml was prepared for cell staining and filled with 100 μl/well into a 96 well plate (Greiner) in triplicate for each cell line.
(§3) Affilin® proteins were tested with a concentration of 1 μM, 100 nM, 10 nM, or 1 nM on FAP expressing cells HEK293-hFAP, HEK293-mFAP and Wi38-cells. To exclude an unspecific binding, Affilin® proteins were also incubated on CD26 expressing cells HEK293-hCD26 and HEK293-mCD26 and control cells HEK293-pEntry with the same concentrations. […] Supernatants were removed after 45 min, cells were washed in blocking buffer and 100 μl/well rabbit anti-StrepTag antibody (GenScript; A00626), 1:300 diluted in FACS blocking buffer were added. After removal of the primary antibody, goat anti-rabbit-IgG-Alexa Fluor 488 antibody (Invitrogen; A11008) was applied in a 1:1000 dilution. Flow cytometry measurement was conducted on the Guava easyCyte 5HT device from Merck-Millipore at excitation wavelength 488 nm and emission wavelength 525/30 nm.

[2] = target: T2, hCD26 expressed on HEK293-hCD26 cells (human, UniProt P27487 1-766); assay: flow cytometry on HEK293-hCD26 cells
T2 construct: whole, on cells
Description: as §1, §2, §3

[3] = target: T3, hFAP expressed on cell surfaces (HEK293-hFAP cells; native on Wi38 cells) (human, UniProt Q12884 1-760); assay: flow cytometry, 1 µM Affilin on HEK293-hFAP cells
T3 construct: whole, on cells; also called cell surface-exposed hFAP
T3 sequence (looked up): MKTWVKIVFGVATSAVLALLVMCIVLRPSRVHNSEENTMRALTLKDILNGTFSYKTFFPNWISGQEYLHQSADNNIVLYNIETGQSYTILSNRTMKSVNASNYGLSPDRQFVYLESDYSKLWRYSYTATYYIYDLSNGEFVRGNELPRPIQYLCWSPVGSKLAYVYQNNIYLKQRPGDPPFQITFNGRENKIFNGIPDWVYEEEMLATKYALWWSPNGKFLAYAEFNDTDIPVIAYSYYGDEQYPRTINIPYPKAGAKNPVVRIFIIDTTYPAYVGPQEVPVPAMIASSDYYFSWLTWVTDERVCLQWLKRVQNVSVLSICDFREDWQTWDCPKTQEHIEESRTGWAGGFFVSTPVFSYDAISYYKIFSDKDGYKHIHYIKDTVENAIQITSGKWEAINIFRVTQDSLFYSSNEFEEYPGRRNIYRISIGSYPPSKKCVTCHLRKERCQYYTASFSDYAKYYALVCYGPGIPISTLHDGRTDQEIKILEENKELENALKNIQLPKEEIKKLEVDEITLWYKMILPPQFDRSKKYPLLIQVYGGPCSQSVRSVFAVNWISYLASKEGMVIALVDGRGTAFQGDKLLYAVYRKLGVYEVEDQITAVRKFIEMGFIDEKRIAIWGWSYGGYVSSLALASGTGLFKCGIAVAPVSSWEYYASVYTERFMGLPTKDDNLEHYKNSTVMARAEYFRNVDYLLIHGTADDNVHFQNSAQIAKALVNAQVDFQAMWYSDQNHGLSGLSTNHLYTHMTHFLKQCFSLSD
Description: as §1, §2
Affilin® proteins were tested with a concentration of 1 μM, 100 nM, 10 nM, or 1 nM on FAP expressing cells HEK293-hFAP, HEK293-mFAP and Wi38-cells. To exclude an unspecific binding, Affilin® proteins were also incubated on CD26 expressing cells HEK293-hCD26 and HEK293-mCD26 and control cells HEK293-pEntry with the same concentrations. […]

T2 sequence (P27487 whole entry): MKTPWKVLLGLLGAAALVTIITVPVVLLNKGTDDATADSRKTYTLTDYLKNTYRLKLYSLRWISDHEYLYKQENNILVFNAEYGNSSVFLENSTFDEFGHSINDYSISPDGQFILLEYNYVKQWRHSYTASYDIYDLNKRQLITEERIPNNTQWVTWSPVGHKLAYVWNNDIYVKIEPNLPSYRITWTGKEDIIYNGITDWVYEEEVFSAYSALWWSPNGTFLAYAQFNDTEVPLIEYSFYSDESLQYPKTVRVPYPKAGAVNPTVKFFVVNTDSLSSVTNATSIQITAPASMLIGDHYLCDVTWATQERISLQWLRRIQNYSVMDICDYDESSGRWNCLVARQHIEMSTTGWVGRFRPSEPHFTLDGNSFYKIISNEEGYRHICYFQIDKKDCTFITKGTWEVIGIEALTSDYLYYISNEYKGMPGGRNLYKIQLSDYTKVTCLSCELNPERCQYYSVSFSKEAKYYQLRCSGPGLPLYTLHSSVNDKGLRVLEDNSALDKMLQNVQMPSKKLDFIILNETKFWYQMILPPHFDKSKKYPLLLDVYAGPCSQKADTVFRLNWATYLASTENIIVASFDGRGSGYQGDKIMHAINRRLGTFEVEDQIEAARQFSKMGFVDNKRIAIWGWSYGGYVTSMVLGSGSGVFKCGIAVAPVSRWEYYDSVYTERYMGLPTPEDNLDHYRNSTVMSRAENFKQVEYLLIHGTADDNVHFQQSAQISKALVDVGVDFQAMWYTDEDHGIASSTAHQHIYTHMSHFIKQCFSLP
T1 sequence (P28843 whole entry): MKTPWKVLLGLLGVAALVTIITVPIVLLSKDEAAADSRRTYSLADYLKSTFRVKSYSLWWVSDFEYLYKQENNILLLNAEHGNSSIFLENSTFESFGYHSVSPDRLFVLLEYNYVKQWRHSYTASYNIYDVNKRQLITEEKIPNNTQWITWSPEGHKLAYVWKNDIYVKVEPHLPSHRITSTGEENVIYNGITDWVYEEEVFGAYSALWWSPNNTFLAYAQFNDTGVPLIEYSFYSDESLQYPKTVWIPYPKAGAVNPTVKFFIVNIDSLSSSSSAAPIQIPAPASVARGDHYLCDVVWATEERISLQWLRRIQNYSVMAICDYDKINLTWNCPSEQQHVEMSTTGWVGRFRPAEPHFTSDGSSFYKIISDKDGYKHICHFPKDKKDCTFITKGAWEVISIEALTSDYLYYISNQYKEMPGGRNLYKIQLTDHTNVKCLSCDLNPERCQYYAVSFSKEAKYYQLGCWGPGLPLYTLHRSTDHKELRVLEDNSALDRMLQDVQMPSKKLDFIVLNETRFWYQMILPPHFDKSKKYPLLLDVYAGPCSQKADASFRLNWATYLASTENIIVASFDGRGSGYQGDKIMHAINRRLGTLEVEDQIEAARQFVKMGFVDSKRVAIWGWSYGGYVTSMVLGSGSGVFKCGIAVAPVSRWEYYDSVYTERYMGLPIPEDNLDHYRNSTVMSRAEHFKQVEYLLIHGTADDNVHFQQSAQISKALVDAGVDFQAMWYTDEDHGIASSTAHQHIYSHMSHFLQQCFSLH

B1: Affilin®-217895 (designed binder)
chain: MQIFVHTWTGKTITMEVEPSDTIENVKAKIQDKEGIPPDQQRLIWAGKQLEDGRTLSDYNIGPMRWPHLVLRLRAAMQIFVWTDTGKTITLEVEPSDTIENVKAKIQDKEGIPPDQQRLIWAGKQLEDGRTLSDYNIWAPANLHLVLRLRAASAWSHPQFEK
notes: Ubiquitin mutein
Question: Which results are given for B1?
Answer: binding result [1]: no binding (tested: 1 µM, 100 nM, 10 nM, or 1 nM); binding result [2]: no binding (tested: 1 µM, 100 nM, 10 nM, or 1 nM); binding result [3]: binds
